# Experimental data published in PubChem BioAssay AID2675 (National Center for Advancing Translational Sciences (NCATS), 2010).
# Out of some 280,000 compounds screened, about 100 (0.036%) were called active. The shares of active, inactive and inconclusive entries below differ from those in the screen. The call rests on the fitted dose curve; in most records, active means well fitted inhibition curve with a large enough effect in the signal ratio, with a control signal flat (not every such curve was filed as active); inconclusive means small, poorly fitted or top-dose-only effect, or effect the other way, or a change in a side signal; inactive means no such curve, though single readings can be large or run the other way; the % refers to the signal ratio. A potency beside an inconclusive call is a rough fit, not a confirmed value. A note “side channel” means that the fit belongs to a control or component signal, not to the main read-out.
# Molecular target: Muscleblind-like protein 1 (Homo sapiens) (UniProt Q9NR56)
# Assay: qHTS Assay for Inhibitors of MBNL1-poly(CUG) RNA binding
# Details: TR-FRET MBNL1-His/biotin-(CUG)12 binding, 665/545 ratio; activity change, negative = inhibition: at 57.5 µM (top of the series)
# In short: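 Compounds (final 92 nM to 58 uM) are added to His-tagged MBNL1 and biotin-(CUG)12, then terbium anti-His antibody and streptavidin-XL665 (5 nM final). After 60 min at room temperature, the 665/545 nm ratio is read.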
# On the % scale 0 is the no-effect control and ±100 the full control effect; potency means the concentration at half of the fitted maximal effect; tags describe the fitted curve by direction and shape or compound fluorescence and quenching.
# Sequence of UniProt Q9NR56 (Q9NR56 whole entry, looked up): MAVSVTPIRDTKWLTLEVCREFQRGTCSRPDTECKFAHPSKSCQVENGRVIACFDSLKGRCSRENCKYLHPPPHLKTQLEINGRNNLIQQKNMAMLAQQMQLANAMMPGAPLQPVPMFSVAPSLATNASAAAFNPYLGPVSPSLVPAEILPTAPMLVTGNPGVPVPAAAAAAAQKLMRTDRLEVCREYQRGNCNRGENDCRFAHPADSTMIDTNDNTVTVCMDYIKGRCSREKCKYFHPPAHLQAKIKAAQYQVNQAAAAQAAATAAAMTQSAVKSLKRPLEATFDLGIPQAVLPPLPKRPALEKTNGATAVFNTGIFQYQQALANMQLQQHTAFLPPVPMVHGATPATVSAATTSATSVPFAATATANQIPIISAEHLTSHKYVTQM
Structure (SMILES),Potency,"activity change, negative = inhibition"
Cc1cc2c(NC3CCCCC3)ncnc2s1,inactive,–
COC(=O)c1cccc(Cn2c(Cl)c(/C=N/NC(=O)c3ccco3)sc2=O)c1,"inconclusive: 14.1 µM [quencher, side channel, partial curve]",–
Cc1cc(C(C#N)c2ccccc2F)n2ncnc2n1 (configuration not stated),"inconclusive: 20 µM [quencher, side channel, partial curve]",–
Cc1cc(Br)c2c(c1)C(O)(N1CCCCC1C)C(=O)N2 (configuration not stated),"inconclusive: 15.8 µM [quencher, side channel, partial curve]",–
CCOC(=O)c1ccc([N+](=O)[O-])cc1NC(C)=O,"inconclusive: 15.8 µM [quencher, side channel, partial curve]",–
C/C=C(\C)C(=O)NCCN1C2=NC[C@H](C(C)C)N2C[C@@H]1Cc1ccc(OC)cc1,inactive,–
CCC(=O)N1CCc2cc(S(=O)(=O)CCC(=O)NCc3ccc(C)cc3)ccc21,inactive,–
Nc1c(-c2cccc(Cl)c2)cnn1-c1ccccc1,"inconclusive: 35.5 µM [quencher, side channel, single point]",–
O=C1/C(=C/c2cccnc2)N=C2CCCCCN12,"inconclusive: 7.94 µM [quencher, side channel, partial curve]",–
O=C(NCCCN1CCCC1)c1cccc(N2CCCC2=O)c1,"inconclusive: 2 µM [fluorescent, side channel, full curve, poor fit]",–
O=C(O)COc1ccc2occ(C(=O)c3ccccc3)c2c1,"inconclusive: 63.1 µM [inhibitor, single point]",–
O=C(/C=C\c1cn(-c2ccccc2)nc1-c1ccc2c(c1)OCCO2)N1CCOCC1,"inconclusive: 31.6 µM [quencher, side channel, single point]",–
Cc1ccc(N(C)S(=O)(=O)c2cccc(C(=O)Nc3nc4ccccc4[nH]3)c2)cc1,"inconclusive: 1 µM [fluorescent, side channel, full curve]",–
CCCCCC(=O)N/N=C/c1ccccc1[N+](=O)[O-],"inconclusive: 14.1 µM [quencher, side channel, partial curve]",–
CCCN(CC#CC(O)(c1ccccc1)c1cccnc1)CCC (configuration not stated),"inconclusive: 11.2 µM [quencher, side channel, partial curve]",–
COc1ccc(N(CC(=O)NC2CCCCC2)C(=O)CNC(=O)c2ccco2)cc1,inactive,–
Cc1nc2ccc(NC(=O)c3ccco3)cc2nc1C,"inconclusive: 12.6 µM [quencher, side channel, partial curve]",–
COc1ccc(-c2c[n+]3c(n2-c2ccc(C)cc2)CCCCC3)cc1,inactive,–
Cc1nc(SCC(=O)Nc2ccc(Cl)cc2[N+](=O)[O-])nc(C)c1C,"inconclusive: 10 µM [quencher, side channel, partial curve]",–
O=C(NCc1c(O)ccc2ccccc12)c1ccccc1,inactive,–
O=C(Nc1ccc(F)cc1F)c1cncc(Br)c1,inactive,–
O=C(CSc1ccc2nnc(-c3ccncc3)n2n1)Nc1ccc2c(c1)OCCO2,inactive,–
COCc1cc(C)n(CC(=O)N/N=C/c2ccc(-c3ccc(Cl)c(C(=O)O)c3)o2)c(=O)c1C#N,"inconclusive: 22.4 µM [quencher, side channel, partial curve]",–

Structure (SMILES),Potency,"activity change, negative = inhibition"
O=C(COC(=O)CNC(=O)c1ccc(Cl)cc1)Nc1ncc(C(F)(F)F)cc1Cl,–,inconclusive: 0.255% [phenotype inactive]
C=CCn1nc([N+](=O)[O-])nc1Sc1cccc2cccnc12,"inconclusive: 10 µM [quencher, side channel, partial curve]",–
O=C(COC(=O)c1ccc([N+](=O)[O-])o1)c1ccccc1,"inconclusive: 10 µM [quencher, side channel, partial curve]",–
CCOc1cc(OCC)cc(C(=O)NC(=S)Nc2cccc(C(F)(F)F)c2)c1,inactive,–
CN1C(=O)C(Cl)(Cl)C(=O)c2ccccc21,inactive,–
Cn1cc(-c2ccccc2)cc(C#N)c1=O,"inconclusive: 28.2 µM [quencher, side channel, single point]",–
CC1(C)N([O-])C2=C(c3ccccc3C2=O)[N+](=O)C1(C)C,"inconclusive: 17.8 µM [quencher, side channel, partial curve]",–
CC(C(=O)Nc1ccccc1)C(=O)Nc1ccccc1,inactive,–
O=c1cnnc(SCc2ccc([N+](=O)[O-])cc2)[nH]1,"inconclusive: 15.8 µM [quencher, side channel, partial curve]",–
CCC(C)(C)n1nnnc1C(c1cc2cc(C)ccc2[nH]c1=O)N1CCCc2ccccc21 (configuration not stated),"inconclusive: 22.4 µM [quencher, side channel, partial curve]",–
O=[N+]([O-])c1ccc(-c2ccc(/C=N/c3c(-c4ccco4)nc4ccccn34)o2)cc1,"inconclusive: 15.8 µM [quencher, partial curve]",–
CN(CCc1ccccn1)c1ccc([N+](=O)[O-])cn1,"inconclusive: 17.8 µM [quencher, side channel, partial curve]",–
Oc1ccc(N=Nc2c(O)ccc3ccccc23)cc1,"inconclusive: 17.8 µM [quencher, side channel, single point]",–
CCC(C)N(C)Cc1cccc(C2(O)CCN(S(=O)(=O)c3ccc(F)c(C)c3)CC2)c1 (configuration not stated),inactive,–
COc1ccc(OCCNS(=O)(=O)c2cccc([N+](=O)[O-])c2)cc1,"inconclusive: 25.1 µM [quencher, side channel, partial curve]",–
Cc1cccc(OCc2nn[nH]n2)c1C,inactive,–
COc1ccc(S(=O)(=O)N2CCN(C/C=C/c3ccccc3)CC2)cc1NC(C)=O,inactive,–
O=C(NNC1=NS(=O)(=O)c2ccccc21)c1ccc(Cl)cc1,inactive,–
Cc1[nH][nH]c(=O)c1N=Nc1ccc(F)cc1,"inconclusive: 20 µM [quencher, single point]",–
Oc1oc(-c2ccco2)nc1C=Nc1ccccc1,"inconclusive: 28.2 µM [quencher, side channel, partial curve]",–
Cc1cc(C)cc(NC(=S)NCc2cccs2)c1,inactive,–
Cc1cc(C)n2nc(CC(=O)NNC(=O)COc3ccccc3)nc2n1,inactive,–
CN(C)/C(CN1CCOCC1)=C1\N=C(c2ccccc2)OC1=O,"inconclusive: 35.5 µM [quencher, side channel, single point]",–

Structure (SMILES),Potency,"activity change, negative = inhibition"
CC1CCCCN1C(=O)C1CCCN(S(=O)(=O)c2cccc3nsnc23)C1 (configuration not stated),"inconclusive: 11.2 µM [quencher, side channel, partial curve]",–
CCC(=O)Nc1ccc2c(c1)nc1n2CCN(C2CCCCC2)C1,"inconclusive: 11.2 µM [quencher, side channel, partial curve]",–
O=C(N/N=C/c1cccs1)c1cnccn1,"inconclusive: 15.8 µM [quencher, side channel, partial curve]",–
COc1cc(-c2cccs2)cc(=O)c2c(C)oc(C)c12,"inconclusive: 14.1 µM [quencher, side channel, partial curve]",–
O=C(CCS(=O)(=O)c1ccc(Br)cc1)NCc1cccs1,inactive,–
COc1nc(-c2ccccc2)ccc1-c1noc(-c2cccnc2)n1,inactive,–
S=C(NCCc1ccccn1)Nc1ccc(Cl)cc1,"inconclusive: 0.158 µM [fluorescent, side channel, full curve, poor fit]",–
COc1ccc(C(=O)Nc2ccccc2C(=O)N/N=C/c2ccccn2)cc1OC,inactive,–
COc1ccc2nc(/C=N/NC(=O)CCNC(=O)OC(C)(C)C)ccc2c1,"inconclusive: 31.6 µM [quencher, side channel, single point]",–
CC(C)CN(CC(C)C)CC(O)COc1ccc([N+](=O)[O-])cc1 (configuration not stated),"inconclusive: 39.8 µM [quencher, side channel, single point]",–
O=C1c2cccnc2C(=O)N1c1ccccc1-c1ccccc1,"inconclusive: 12.6 µM [quencher, partial curve]",–
O=c1c2ccc([N+](=O)[O-])cc2ncn1Cc1ccccc1C(F)(F)F,"inconclusive: 3.55 µM [quencher, side channel, full curve]",–
CCn1c(SCC(=O)N/N=C/c2ccc(O)c(OC)c2)nc2ccccc21,"inconclusive: 31.6 µM [quencher, side channel, partial curve]",–
Oc1c(/C=N/c2ccccn2)sc2ccccc12,"inconclusive: 11.2 µM [quencher, side channel, partial curve]",–
CC(=O)c1cnc2cc(-c3ccc(Cl)cc3)nn2c1C,inactive,–
O=C(Nc1nc2ccccc2n1CCN1CCOCC1)c1ccc(COc2ccccc2Br)o1,inactive,–
CCN(CC)C(=O)C12CC3CC(CC(Cl)(C3)C1)C2,"inconclusive: 1.41 µM [fluorescent, side channel, partial curve]",–
CC1=NN(C(N)=S)C(=O)C1N=Nc1c(Cl)cc([N+](=O)[O-])cc1Cl (configuration not stated),"inconclusive: 28.2 µM [quencher, partial curve]",–
COc1cccc(C(=O)Nc2ccc(-c3nc4ccccc4o3)c(O)c2)c1,"inconclusive: 22.4 µM [activator, single point]",–
Cc1cc(C)nc(NC(=O)/C=C/c2cccs2)c1,"inconclusive: 15.8 µM [quencher, side channel, partial curve]",–
O=C(NCc1cccnc1)c1ccc(N2CCOCC2)c([N+](=O)[O-])c1,"inconclusive: 15.8 µM [quencher, side channel, partial curve]",–
